Over roughly 33,000 sequences, “E-score (-0.5 to 0.5)” has its median near -0.041; the highest 2% begin near 0.37. Some of the results follow.
biological target: T1, Ecm22 (UniProt Q05958); assay: PBM E-score (8-mer binding enrichment) (E-score (-0.5 to 0.5)); higher = stronger / more preferred TF binding; most listed sequences are background and not binding sites; conditions: protein concentration: 200 nM; construct: GST-full length
T1 sequence: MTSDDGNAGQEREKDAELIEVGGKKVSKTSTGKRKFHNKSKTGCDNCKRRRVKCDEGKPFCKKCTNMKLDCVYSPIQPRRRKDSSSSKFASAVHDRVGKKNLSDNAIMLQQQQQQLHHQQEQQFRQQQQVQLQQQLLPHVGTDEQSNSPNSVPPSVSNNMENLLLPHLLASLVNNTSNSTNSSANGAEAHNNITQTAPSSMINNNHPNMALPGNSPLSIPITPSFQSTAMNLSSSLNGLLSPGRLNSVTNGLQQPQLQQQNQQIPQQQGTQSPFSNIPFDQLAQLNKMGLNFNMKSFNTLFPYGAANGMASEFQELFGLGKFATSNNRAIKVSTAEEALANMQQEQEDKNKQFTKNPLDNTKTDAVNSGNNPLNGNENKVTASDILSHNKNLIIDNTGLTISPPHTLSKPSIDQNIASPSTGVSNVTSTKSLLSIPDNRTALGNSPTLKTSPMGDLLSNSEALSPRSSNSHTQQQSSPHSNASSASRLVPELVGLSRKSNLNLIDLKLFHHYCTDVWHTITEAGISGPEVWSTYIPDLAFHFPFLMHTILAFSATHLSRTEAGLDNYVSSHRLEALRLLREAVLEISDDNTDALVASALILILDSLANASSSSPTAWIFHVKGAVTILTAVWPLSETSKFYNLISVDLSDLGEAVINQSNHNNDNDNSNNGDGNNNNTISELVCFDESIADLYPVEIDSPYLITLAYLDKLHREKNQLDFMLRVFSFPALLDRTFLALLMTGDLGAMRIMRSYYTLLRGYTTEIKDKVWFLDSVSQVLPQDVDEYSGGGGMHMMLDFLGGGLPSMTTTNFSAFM
Protocol: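 Universal 'all 10-mer' protein binding microarrays (Agilent AMADID 015681) probed with GST-tagged S. cerevisiae TFs (full-length or DBD) made by in vitro transcription/translation (PURExpress), about 100-200 nM. Bound TF was detected with fluorescent anti-GST. Each ungapped 8-mer (which stands for itself and its reverse complement) is scored by the PBM enrichment score (E-score), a modified Wilcoxon-Mann-Whitney statistic from -0.5 to +0.5, computed with the Universal PBM Analysis Suite. Scale: above 0.35 generally sequence-specific binding.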

Sequence	PBM E-score
AAATCCGC	-0.166
GACCCACA	0.154
ACAATTCG	0.131
AGATGTTC	-0.137
CCGCCCGA	-0.104
ATACGAAA	0.463
CAGGTATC	-0.0891
ATTACAAA	0.0328
TCACCACA	-0.0241
AACAATAC	0.191
CATTTTTC	0.0145
AATGCGCA	0.0276
AGTTACGG	0.138
CTTCGCAC	0.185
TGGAACAA	-0.0166
GTCTCATA	0.00156
ACAAGAGC	-0.117
GTGCGTAA	0.121
CAGACAGC	-0.262
AATTCCTG	-0.267
ATGTATTG	0.0849
TTAACAAA	0.183
ACCAATAC	-0.0292
AGAGAGCA	-0.163
CGATACAA	0.148

Sequence	PBM E-score
CACAAATA	0.0052
GCGTCGCA	0.23
AGGGTGCG	-0.0528
CCGCGCGG	0.263
CGGGTCCA	-0.181
ACAATACA	0.111
GCCCGCTA	0.0508
CGAATTAC	0.119
TGATGACA	-0.0803
TCCCGCGA	0.129
GAGATATC	0.145
ACTTATGC	0.0832
CAAAACTC	-0.0641
GGCGAACC	0.0118
CGCCGTAG	0.119
ATGCCACA	-0.24
GGAGGTAC	0.121
CCCCATTC	0.00876
GAAACTGC	-0.0317
TAATCATA	-0.0103
CGAGTTCC	0.167
CCACCAGC	0.0439
GCCGGGAC	-0.149
GACGCCGA	0.0726
AGGAGCGG	-0.232

Sequence	PBM E-score
AAGGCCAC	-0.207
GCATGACC	-0.227
GACCGTCA	-0.179
TATGAATA	0.188
AGTACCTA	-0.104
CACTTTCA	-0.153
GTAAACAC	0.269
AGTTAACA	0.0269
CCATACCG	-0.122
ATAGGGCA	-0.357
AACAGCAT	-0.125
CCCTCGAA	-0.00252
GCAACTTA	-0.108
GTGCTAAA	-0.00649
ACCACTAC	-0.145
CATAGCCG	-0.21
CGTGCACA	-0.214
AGTTCGAC	-0.117
AATGACCA	-0.193
TCGGAAAA	0.269
GCTCCGCA	0.00122
ATGCATTC	0.058
AGCCAACG	-0.0829
GACATATC	0.00761
AGCGAACT	0.0796

Sequence	PBM E-score
CCTCGAGC	-0.0414
CAGAACAA	0.0159
CCCAGGAG	-0.22
CCAGGGCA	-0.108
ACGGGATA	0.241
AGTACTTA	0.0475
ATAAGGTC	0.0235
GCTTTACA	0.0447
ACATAGGG	-0.235
CGGATCAG	0.0613
GATAAACA	-0.143
CAACATCG	0.0379
ACGGGTAT	0.106
GGCAACTA	-0.282
AGTCAAAC	0.153
GCAAACAA	0.0626
AATTCGGA	0.191
CTCGTTAA	0.437
GGCGTCCA	-0.371
CAACGTTG	0.165
ATCTTTGC	0.0357
ACGTTTAA	0.365
CAACTAAA	-0.126
AACGAGTT	0.41
GCCATCAC	-0.177

Sequence	PBM E-score
CCCATTGA	-0.171
GCACTCTA	-0.0709
ATGTATGA	-0.00046
CGAGGCTA	0.182
CAAGTAAC	-0.0866
AGCCTTGG	-0.234
CAACCAGA	0.102
CCCAGAAG	-0.187
AACTAGTA	0.0139
AGAATACT	0.0158
AAGTGTCC	-0.169
AACATCTC	-0.0822
GCTCCAAC	-0.0433
GTAACCTA	0.00094
ACGATCAG	0.224
CTGAGCCA	-0.299
TGAAAGCA	0.00634
AACGAAAC	0.389
GGGCCCTA	-0.275
GGCGTCAC	-0.0293
AAACTTTG	-0.0353
ATGTTAAG	-0.0147
GAAATCCC	-0.0904
ACGAGCTA	0.39
GGTCTGGA	-0.147

Sequence	PBM E-score
CTTCCACA	-0.2
ATCGCCAC	-0.016
AGGATTAC	-0.0965
CCTAAAAC	-0.096
TACTCATA	-0.0103
CAGGCGCC	-0.148
AAGCGCAC	0.0929
GCCATAAC	-0.275
CTTGATAC	0.0141
GAGCACTC	0.122
GGACACCA	-0.149
CGCAGCCC	-0.123
GGACAGCC	-0.00816
GGCCGACA	0.0235
CGGCTTCC	-0.146
AGCGGCCG	0.11
GCGCTAGC	-0.0399
AACCCTCA	-0.0419
CACATTGG	-0.271
CGGCTGAA	-0.0138
ATCAATCA	0.0946
CCGTGTGC	-0.19
TAGGTTGA	-0.169
ATCTGGAG	-0.176
CCTTCGGC	-0.208

Sequence	PBM E-score
GCAAGACC	-0.0795
CCGGCTAG	-0.254
GGCCACCC	-0.126
CAGGTTGC	-0.152
GTGTATTA	0.0757
GGGAGAAA	-0.141
AGTGCACT	-0.204
ACTGAACT	0.0276
AGGCTGCA	-0.173
GACCTATA	0.232
ATTAGGCA	-0.0941
CGAGACGA	0.265
GGCGCCCC	-0.193
AGGAATAT	0.06
AAACCGGC	0.0357
GCTTGCAC	-0.0076
CCTATCAC	-0.207
TACAGGTA	0.242
CTGTCTCC	-0.0908
ACGCTCCT	0.0309
AAATCACT	0.00461
TGCTGAAA	-0.244
AGCGCATC	0.0904
CATCGCGG	0.0538
ATGCCATG	0.0746

Sequence	PBM E-score
GACGGCGC	0.0716
AACTAGAT	-0.155
AGCGCAAA	0.0539
GAACATCC	0.0795
CCCATACC	-0.057
CACGCGTA	0.133
AATGCTGC	0.0546
CTGTACCA	-0.152
ACGAAGCC	0.332
GACCACGA	0.036
ATGACGTG	-0.166
TCTATGCA	-0.148
ACACTAAG	0.0219
GTGCTAGA	-0.338
GGAAAAAC	0.0925
GGCATTCA	-0.0839
GCAGTGAC	-0.273
CAAGGGGG	-0.172
CCGTACAC	0.33
ATCTGGAA	-0.169
GCCACGCA	-0.0669
AAGTGTGA	-0.288
CGTCCTAC	-0.256
TCCTTACA	-0.212
AGTTACAA	-0.00606

Sequence	PBM E-score
ATAGTAAT	0.124
AGACCAGG	-0.177
CGCATCAC	-0.0396
ATACGTTG	0.216
TCCGGCCA	-0.0746
ATCTCGCC	0.0128
TACTTATA	0.0873
AAAGATCT	-0.0673
TAATTTGA	-0.0645
CATGTCGA	-0.123
AAACCTTT	-0.148
CCAGTTCC	0.0619
TATAGCCA	0.15
CGGCAGTC	0.114
CGGCGGCA	0.015
CTTTGAAA	0.0595
TCAGTCCA	-0.28
GCTGTCCA	-0.159
AACCAATT	-0.233
